# The whole screen tested about 52,000 compounds, of which about 1,700 (3.3%) were called active. Cut-off read from the data, not from the text of the source: active = survival mostly below about 52% (no sharp cut-off); inactive = mostly above about 56%. Some of the results follow.
# System: Wild type
# Test: S. aureus survival, RN4220 and DeltatarO strains – OD600, teichoic acid synthesis inhibitors, primary screen (AID 463173)
# Conditions: S. aureus RN4220 wild type/DeltatarO growth, OD600, 18 h, stronger effect = lower value, screened at 18.75 µg/mL (by protocol)
row,Structure (SMILES),survival
1,COc1ccc(C2CC(=O)N(Cc3ccccc3)c3c2c(C)nn3-c2nc(C)cc(C)n2)c(OC)c1 (stereo unspecified),inactive: 83%
2,COc1ccc(-n2nc3ccc(NS(C)(=O)=O)cc3n2)cc1Cl,inactive: 116%
3,Cc1ccccc1CNC(=O)Nc1ccc2c(c1)N(C)C(=O)c1ccccc1S2,inactive: 87%
4,O=c1cc(-c2ccccc2)c2ccc3c(c2o1)CN(Cc1ccccc1)CO3,inactive: 81%
5,CCOC(=O)c1c(-c2ccccc2)oc2ccc(N(C(C)=O)S(=O)(=O)c3ccc(C)cc3)cc12,inactive: 72%
6,CCC(=O)N1CCc2cc(Br)cc(S(=O)(=O)CCC(=O)NCCc3ccccc3)c21,inactive: 70%
7,CCc1ccccc1NC(=O)Cn1cc2c(n1)CCC(C)C2 (stereo unspecified),inactive: 85%
8,CCc1ccc(NS(=O)(=O)c2ccc3[nH]cc(C(=O)N(C)Cc4ccco4)c(=O)c3c2)cc1,inactive: 85%
9,CCCN(C(=O)CCNC(=O)Cn1cnc2ccccc2c1=O)c1cccc(C)c1,inactive: 84%
10,CC(C)CN(CCNC(=O)c1cn(C)c2ccc(S(=O)(=O)N3CCCC3)cc2c1=O)CC(C)C,inactive: 134%
11,Cc1nn(-c2ccc(N3CCCCC3)nn2)c(C)c1CCC(=O)NCc1ccc(Cl)cc1,inactive: 127%
12,CCCc1cc(=O)[nH]c(Nc2cc(Cl)ccc2OC)n1,inactive: 84%
13,O=C(NCc1ccco1)C(c1ccccc1)N(C(=O)Cc1cccs1)c1cccnc1 (stereo unspecified),inactive: 113%
14,CCC(C)NC(=O)c1sc2ncccc2c1-n1c(C)ccc1C (stereo unspecified),inactive: 82%
15,CCOC(=O)c1ccc2[nH]c(CSc3nnc(-c4cccc(F)c4)n3C)cc(=O)c2c1,inactive: 65%
16,Cc1ccc(-n2nc(C(=O)N3CCN(c4cccc(C(F)(F)F)c4)CC3)c3c4ccccc4n(C)c3c2=O)cc1,inactive: 75%
17,Cc1ccc(C)c(-c2[nH]c3c(c2-c2c(-n4cccc4)n(C)c(=O)n(C)c2=O)c(=O)n(C)c(=O)n3C)c1,inactive: 82%
18,CCOc1cc(C2c3c(oc4ccccc4c3=O)C(=O)N2c2ccccn2)ccc1O (stereo unspecified),inactive: 111%
19,Cc1cccc(NC(=O)COc2cccc3c(=O)n(C)ccc23)c1C,inactive: 73%
20,Cc1ccc(CNc2nccn(-c3cc(C)cc(C)c3)c2=O)cc1,inactive: 76%
21,CCOC(=O)c1c(NC(=O)c2cc(Cl)ccc2Cl)sc2c1CCCC2,inactive: 76%
22,COc1ccc(OC)c(NC(=O)c2cc(=O)c3c(C)cc(C)cc3o2)c1,inactive: 87%

row,Structure (SMILES),survival
1,Cc1ccc(CNc2cc(C)nc3nc(-c4cccc(C)c4)nn23)cc1,inactive: 146%
2,CN(C(=O)CSc1nc2ccc(NC(=O)COc3ccccc3)cc2s1)c1ccccc1,inactive: 84%
3,Cc1cc(C)n(CCc2nc3c4ccccc4nc(N4CCN(c5ccc(F)cc5)CC4)n3n2)n1,inactive: 77%
4,Cc1cn2c(=O)c(S(=O)(=O)NCc3ccccc3Cl)c(C)nc2s1,inactive: 88%
5,CCOC(=O)c1cccc(NC(=O)CCc2c(C)nn(-c3ccc(N4CCOCC4)nn3)c2C)c1,inactive: 152%
6,CCOc1ccccc1C(=O)NC1CCSC1=O (stereo unspecified),inactive: 106%
7,CCN(C(=O)CSc1nc2ccccc2n1CC(=O)Nc1ccc(F)cc1F)c1ccccc1,inactive: 73%
8,COc1ccc(-c2ccc(CCC(=O)O)n2-c2ccc(Cl)cc2C)cc1,inactive: 70%
9,CCN(C(=O)CSc1nc2n[nH]c(C)c2c(=N)n1-c1cccc(OC)c1)c1cccc(C)c1,inactive: 67%
10,COc1ccc(C2Oc3nc(SC)nnc3-c3ccccc3N2C(C)=O)cc1 (stereo unspecified),inactive: 65%
11,CCc1ccc(-n2nc(CO)c(C(=O)NCc3ccccc3OC)n2)cc1,inactive: 88%
12,Cc1ccc2[nH]c3c(=O)n(CC(=O)NCCc4ccc(Cl)cc4)ncc3c2c1,inactive: 63%
13,COc1ccc(NC(=O)C2CCN(c3cnccn3)CC2)cc1Cl,inactive: 83%
14,CCn1cc(S(=O)(=O)c2cccc(C)c2)c(=O)c2cc(F)c(N3CCN(c4ccccc4)CC3)cc21,inactive: 69%
15,COCCCn1c(=O)c2sccc2n2c(CCCC(=O)NCc3ccc(F)cc3)nnc12,inactive: 106%
16,CCN(CC)CCCNC(=O)CSc1nc2nc(C)c(Cc3c(F)cccc3Cl)c(C)n2n1,inactive: 144%
17,Cc1nn(C(=O)c2cc3sc(Br)cc3[nH]2)c(C)c1C,inactive: 97%
18,CCc1ccc(-n2nc(CO)c(C(=O)NCC(c3ccccc3)c3ccccc3)n2)cc1,inactive: 90%
19,Cc1ccc(N(Cc2cc3ccccc3[nH]c2=O)C(=O)c2cccc(Cl)c2)cc1,inactive: 86%
20,Cc1ccc(-c2cn3c(n2)sc2cc(C(=O)NCc4cccs4)ccc23)c(C)c1,inactive: 77%
21,COc1ccc(Cn2ccc3nc(C)c(C(=O)N4CCN(c5ccccc5OC)CC4)cc3c2=O)cc1,inactive: 66%
22,CC(C)NC(=O)C(c1ccccc1)N1Cc2ccccc2C1=O (stereo unspecified),inactive: 73%

row,Structure (SMILES),survival
1,CC(C)c1ccc2occ(CC(=O)Nc3ccccc3Cl)c2c1,inactive: 81%
2,Cc1cc(C)nc(/N=C(\N)N2CCc3ccccc32)n1,inactive: 98%
3,COc1ccc(OCC2c3cc(OC)c(OC)cc3CCN2C(=O)COc2ccc(Cl)cc2Cl)cc1 (stereo unspecified),inactive: 77%
4,Cc1ccc(CSc2nnc(-n3c(=O)c(C#N)cc4c(=O)n5cc(C)ccc5nc43)s2)cc1,inactive: 112%
5,COc1ccc(-c2noc(CSc3nc(C)cc(=O)[nH]3)n2)cc1OC,inactive: 52%
6,Cc1ccc(C)c(NC(=O)Cn2c(=O)n(Cc3ccc4c(c3)OCO4)c(=O)c3oc4ccccc4c32)c1,inactive: 88%
7,CC1=C(C(N)=O)C(c2cccc(C)c2)n2nc(-c3cccc(C)c3)nc2N1 (stereo unspecified),inactive: 64%
8,CCOC(=O)C1CCN(S(=O)(=O)c2ccc(N3CCCCS3(=O)=O)cc2)CC1,inactive: 69%
9,COc1cc(C(Nc2ccc(S(=O)(=O)N3CCCC3)cc2)C(=O)NC(C)(C)C)cc(OC)c1OC (stereo unspecified),inactive: 105%
10,Cc1ccc(CNC(=O)c2cc(-c3ccc(C)cc3)nc3n[nH]c(-c4ccc(F)cc4)c23)cc1,inactive: 58%
11,CC(C)C1N=C2c3ccccc3N=C(SCC(=O)NCc3ccccc3Cl)N2C1=O (stereo unspecified),inactive: 95%
12,CCn1c(SCc2ccc(F)cc2Cl)nc(=O)c2c(C(=O)OC)cc(C3CC3)nc21,inactive: 84%
13,CCCn1c(=O)c2sccc2n2c(CCCC(=O)Nc3ccc(Oc4ccccc4)cc3)nnc12,inactive: 108%
14,O=C(c1ccc2c(c1)CCN2S(=O)(=O)c1ccc(Cl)cc1)N1CCN(c2ccccc2)CC1,inactive: 87%
15,COc1ccc(OC)c(CNC(=O)c2c(C)oc3ncn(C)c(=O)c23)c1,inactive: 70%
16,CCOc1ccc(CN2C(=O)c3ccccc3Sc3ccc(C(=O)OC)cc32)cc1,inactive: 71%
17,CC(=O)Nc1ccc(S(=O)(=O)NCc2cccn2Cc2cccc(C)c2)cc1,inactive: 70%
18,COc1ccc(N2CC(NC(=O)c3ccco3)CC2=O)cc1OC (stereo unspecified),inactive: 68%
19,O=C(CSc1nnc(Cn2nnc3ccccc32)o1)N1c2ccccc2CCc2ccccc21,inactive: 95%
20,COc1ccc(CNC(=O)c2ccc3c(c2)N(Cc2ccccc2C)C(=O)c2ccccc2S3=O)cc1 (stereo unspecified),inactive: 73%
21,O=C(NCc1ccc(F)cc1)C1CCN(c2ncnc3c2nc2n3CCCCC2)CC1,inactive: 93%
22,COc1ccc(CNc2oc(/C=C/c3cccc(OC)c3)nc2C#N)cc1,inactive: 75%

row,Structure (SMILES),survival
1,O=C(CN1CCC(N2CCCCC2)CC1)c1ccc2c(c1)OCCO2,inactive: 128%
2,COc1cc(C(CC(=O)Nc2cc(C)ccc2C)N2Cc3ccccc3C2=O)cc(OC)c1OC (stereo unspecified),inactive: 75%
3,CN(Cc1ccccc1)C(=O)c1cccc(NC(=O)c2nsc3ccccc23)c1,inactive: 100%
4,CCOCCCNC(=O)c1cn(CC)c2ccc(S(=O)(=O)N3CCc4ccccc4C3)cc2c1=O,inactive: 78%
5,Cc1ccc2nc(-c3ccncc3)c(Nc3ccc(C(C)C)cc3)n2c1,inactive: 78%
6,CCOC(=O)c1[nH]c(C)c(CCC(=O)N2CCN(c3cccc(C)c3C)CC2)c1C,inactive: 89%
7,CC(=O)c1ccc(NC(c2ccc(F)cc2)c2nnc(-c3ccccc3)o2)cc1 (stereo unspecified),inactive: 85%
8,CC(C)(C)OC(=O)N1CCC(c2c(C(=O)N3CCN(c4ccccn4)CC3)cnn2-c2ccccc2Cl)CC1,inactive: 53%
9,CCOCCc1nn2c(=O)cc(COC(=O)CNC(=O)c3ccc(F)cc3)nc2s1,inactive: 71%
10,Cc1ccc(CSc2nc(-c3ccc(C(C)(C)C)cc3)nc3cc(=O)[nH]n23)cc1,inactive: 113%
11,CCc1ccc(Nc2sc(C(=O)c3ccccc3)c(N)c2S(C)(=O)=O)cc1,inactive: 72%
12,CCOc1ccc(CC(=O)NCCc2csc(-c3ccc(Cl)cc3)n2)cc1,inactive: 73%
13,COC(=O)c1c(-c2cccs2)csc1NC(=O)c1cc(OC)c(OC)c(OC)c1,inactive: 76%
14,CC(C)CCNC(=O)c1nn(C)c2c1CSc1ccccc1-2,inactive: 89%
15,COc1ccc(-c2cn3c(n2)sc2cc(C(=O)Nc4ccc(F)cc4Cl)ccc23)cc1,inactive: 88%
16,COc1ccc(-n2ccn(CC(=O)Nc3ccc(C)c(C)c3)c(=O)c2=O)cc1OC,inactive: 96%
17,CCOc1cc2[nH]c(=O)n(CCCC(=O)NCc3ccc(OC)cc3)c(=O)c2cc1OCC,inactive: 74%
18,Cc1ccc(NC(=O)C(=O)NCC(c2cccnc2)N2CCc3ccccc3C2)cc1 (stereo unspecified),inactive: 83%
19,C=Cc1ccc(Cn2c(C(=O)O)c(CNCc3ccccc3)c3ccc(OC)cc32)cc1,inactive: 107%
20,CC1CCCN(S(=O)(=O)c2cc(C(=O)NCc3ccccc3Cl)n(C)c2)C1 (stereo unspecified),inactive: 71%

# — PubChem BioAssay AID463173 (ICCB-Longwood Screening Facility, Harvard Medical School, 2010)
